# Results: the supplement of paper PMC8728848
# The list shows a part of the results.
# Columns and labels:
# Test in all cases: glycan array binding signal (z-score within array); higher = stronger binding
# Settings in all cases: glycan notation: IUPAC condensed, linker removed
# [1] = target: Neu5Ac(a2-3)Gal(b1-3)GlcNAc6S
# Method in brief: (§1)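 The binding signal is a Z-score computed within each array and averaged over linkers. Arrays of the same protein sequence at different concentrations or buffers were also averaged together. Data originate from 3228 arrays in the Consortium for Functional Glycomics database, kept only where the protein sequence was available.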
# [2] = target: Neu5Ac(a2-3)Gal(b1-3)[Fuc(a1-4)]GlcNAc
# Method in brief: as §1
# [3] = target: Neu5Ac(a2-3)Gal(b1-3)[Fuc(a1-4)]GlcNAc(b1-3)Gal(b1-3)[Fuc(a1-4)]GlcNAc
# Method in brief: as §1
# [4] = target: Neu5Ac(a2-3)Gal(b1-3)[Fuc(a1-4)]GlcNAc(b1-3)Gal(b1-4)[Fuc(a1-3)]GlcNAc
# Method in brief: as §1
# [5] = target: Neu5Ac(a2-3)Gal(b1-3)[GlcNAc(b1-6)]GalNAc
# Method in brief: as §1
# [6] = target: Neu5Ac(a2-3)Gal(b1-3)[Neu5Ac(a2-6)]GalNAc
# Method in brief: as §1
# [7] = target: Neu5Ac(a2-3)Gal(b1-3)[Neu5Ac(a2-6)]GlcNAc(b1-3)[Fuc(a1-3)[Gal(b1-4)]GlcNAc(b1-6)]Gal(b1-4)Glc
# Method in brief: as §1
# [8] = target: Neu5Ac(a2-3)Gal(b1-3)]Neu5Ac(a2-3)Gal(b1-4)]GlcNAc
# Method in brief: as §1
# Neu5Ac(a2-3)Gal(b1-4)Glc = target: Neu5Ac(a2-3)Gal(b1-4)Glc
# Method in brief: as §1
# [9] = target: Neu5Ac(a2-3)Gal(b1-4)GlcNAc
# Method in brief: as §1
# [10] = target: Neu5Ac(a2-3)Gal(b1-4)GlcNAc(b1-2)Man
# Method in brief: as §1
# [11] = target: Neu5Ac(a2-3)Gal(b1-4)GlcNAc(b1-2)Man(a1-3)[GlcNAc(b1-4)][Neu5Ac(a2-3)Gal(b1-4)GlcNAc(b1-2)Man(a1-6)]Man(b1-4)GlcNAc(b1-4)GlcNAc
# Method in brief: as §1
# [12] = target: Neu5Ac(a2-3)Gal(b1-4)GlcNAc(b1-2)Man(a1-3)[Neu5Ac(a2-3)Gal(b1-4)GlcNAc(b1-2)Man(a1-6)]Man(b1-4)GlcNAc(b1-4)GlcNAc
# Method in brief: as §1
# [13] = target: Neu5Ac(a2-3)Gal(b1-4)GlcNAc(b1-2)Man(a1-3)[Neu5Ac(a2-3)Gal(b1-4)GlcNAc(b1-2)Man(a1-6)]Man(b1-4)GlcNAc(b1-4)[Fuc(a1-6)]GlcNAc
# Method in brief: as §1
# [14] = target: Neu5Ac(a2-3)Gal(b1-4)GlcNAc(b1-2)Man(a1-3)[Neu5Ac(a2-6)Gal(b1-4)GlcNAc(b1-2)Man(a1-6)]Man(b1-4)GlcNAc(b1-4)GlcNAc
# Method in brief: as §1
# [15] = target: Neu5Ac(a2-3)Gal(b1-4)GlcNAc(b1-2)[Neu5Ac(a2-3)Gal(b1-4)GlcNAc(b1-4)]Man(a1-3)[GlcNAc(b1-4)][Neu5Ac(a2-3)Gal(b1-4)GlcNAc(b1-2)[Neu5Ac(a2-3)Gal(b1-4)GlcNAc(b1-6)]Man(a1-6)]Man(b1-4)GlcNAc(b1-4)GlcNAc
# Method in brief: as §1
# [16] = target: Neu5Ac(a2-3)Gal(b1-4)GlcNAc(b1-2)[Neu5Ac(a2-3)Gal(b1-4)GlcNAc(b1-4)]Man(a1-3)[GlcNAc(b1-4)][Neu5Ac(a2-3)Gal(b1-4)GlcNAc(b1-4)Man(a1-6)]Man(b1-4)GlcNAc(b1-4)GlcNAc
# Method in brief: as §1
# [17] = target: Neu5Ac(a2-3)Gal(b1-4)GlcNAc(b1-2)[Neu5Ac(a2-3)Gal(b1-4)GlcNAc(b1-6)]Man(a1-6)[Neu5Ac(a2-3)Gal(b1-4)GlcNAc(b1-2)Man(a1-3)][GlcNAc(b1-4)]Man(b1-4)GlcNAc(b1-4)GlcNAc
# Method in brief: as §1
# [18] = target: Neu5Ac(a2-3)Gal(b1-4)GlcNAc(b1-3)Gal
# Method in brief: as §1
# [19] = target: Neu5Ac(a2-3)Gal(b1-4)GlcNAc(b1-3)Gal(b1-3)GlcNAc
# Method in brief: as §1
# [20] = target: Neu5Ac(a2-3)Gal(b1-4)GlcNAc(b1-3)Gal(b1-4)GlcNAc
# Method in brief: as §1
# [21] = target: Neu5Ac(a2-3)Gal(b1-4)GlcNAc(b1-3)Gal(b1-4)GlcNAc(b1-2)Man(a1-3)[Neu5Ac(a2-3)Gal(b1-4)GlcNAc(b1-3)Gal(b1-4)GlcNAc(b1-2)Man(a1-6)]Man(b1-4)GlcNAc(b1-4)GlcNAc
# Method in brief: as §1
# [22] = target: Neu5Ac(a2-3)Gal(b1-4)GlcNAc(b1-3)Gal(b1-4)GlcNAc(b1-3)Gal(b1-4)GlcNAc
# Method in brief: as §1
# [23] = target: Neu5Ac(a2-3)Gal(b1-4)GlcNAc(b1-3)Gal(b1-4)GlcNAc(b1-3)Gal(b1-4)GlcNAc(b1-2)Man(a1-3)[Neu5Ac(a2-3)Gal(b1-4)GlcNAc(b1-3)Gal(b1-4)GlcNAc(b1-3)Gal(b1-4)GlcNAc(b1-2)Man(a1-6)]GalNAc
# Method in brief: as §1
# [24] = target: Neu5Ac(a2-3)Gal(b1-4)GlcNAc(b1-3)Gal(b1-4)GlcNAc(b1-3)GalNAc
# Method in brief: as §1
# [25] = target: Neu5Ac(a2-3)Gal(b1-4)GlcNAc(b1-3)Gal(b1-4)GlcNAc(b1-3)[Neu5Ac(a2-3)Gal(b1-4)GlcNAc(b1-3)Gal(b1-4)GlcNAc(b1-6)]GalNAc
# Method in brief: as §1
# [26] = target: Neu5Ac(a2-3)Gal(b1-4)GlcNAc(b1-3)Gal(b1-4)GlcNAc(b1-6)[Gal(b1-3)]GalNAc
# Method in brief: as §1
# [27] = target: Neu5Ac(a2-3)Gal(b1-4)GlcNAc(b1-3)Gal(b1-4)[Fuc(a1-3)]GlcNAc
# Method in brief: as §1
# [28] = target: Neu5Ac(a2-3)Gal(b1-4)GlcNAc(b1-3)GalNAc
# Method in brief: as §1
# [29] = target: Neu5Ac(a2-3)Gal(b1-4)GlcNAc(b1-3)[Neu5Ac(a2-3)Gal(b1-4)GlcNAc(b1-6)]GalNAc
# Method in brief: as §1
binder,measurement,setting,value
SialidaseA (Arthrobacter ureafaciens) (protein) MRSNSTSAPSLVRRAATGVLTCAVSIGLLAGLGLPAQAAPTPPNSPTLPPGSFSETNLAADRTAANFFYRIPALTYLGNDVVLAAWDGRPGSAADAPNPNSIVQRRSTDGGKTWGPVQVIAAGHVADASGPRYGYSDPSYIYDAEANKVFAFFVYSKDQGFGGSQFGNDDADRNVISSAVIESSDAGVTWSQPRLITSVTKPGTSKTNPAAGDVRSNFASSGEGIQLKYGPHKGRLIQQYAGDVRQADGSNKIQAYSVYSDDHGVTWHKGANVGDRMDENKTVELSDGRVLLNSRDNANRGYRKVAVSTDGGATYGPVSQDTELPDPANNGAIARMFPNAAQGSADAKKLIFTNANSKTGRENVSARVSCDDGETWPGVRTIRSGFSAYSTVTRLADGKFGVLYEGNYTDNMPFATFDDAWLNYVCAPLAVPAVNIAPSATQEVPVTVTNQEATTLSGATATVYTPSGWSATTVPVPDVAPGASVTVTVALTAPADASGPRSLNAAFTTADGRVSQFTFTATTPVAPQVGLTITGSAPARDVAANPYQAGDVLGYTLNVKSTANVAANSVPLTGTFDSGFLPPAAPNCRYNNLAAGASYNCTTAKHTITAADMERGYFVPEATFSITSTTTPSLTKTVQFTGAAVALRDGLISADISGARTDVGRDLATRPYAAGELVPYAFTVKNTSPFVEQVVPTAGNFSPFLPAGAGNCRYLSLPAGQSYECATPRHAVTAEEVEQGFFVPDTTWEVSAAGQSTRTYRINGGEVDLLVRDAALSATVVAEWKDADGDRFASAGDPVTFTYTVGNAGNVALTGLEAPDAGISLPFLAPGDTATATREHVLTAADVAGGSLAASAFEATARNGSKEVTATAEGQPLELKVQPAQPSKEPELTVQDLEDQTPPFDLGTAFKYRTGQKVSLAGLEYGQWYYVYLNKTGYRLGWMFPTTGDTVEFILPPEVRNGRDDVVVLDKDGRRVSFDRLQVTPKGEKI,glycan array binding signal (z-score),[1],2.66
same,glycan array binding signal (z-score),[2],1.93
same,glycan array binding signal (z-score),[3],1.21
same,glycan array binding signal (z-score),[4],2.39
same,glycan array binding signal (z-score),[5],0.158
same,glycan array binding signal (z-score),[6],1.38
same,glycan array binding signal (z-score),[7],0.172
same,glycan array binding signal (z-score),[8],2.49
same,glycan array binding signal (z-score),Neu5Ac(a2-3)Gal(b1-4)Glc,0.967
same,glycan array binding signal (z-score),[9],0.633
same,glycan array binding signal (z-score),[10],-0.333
same,glycan array binding signal (z-score),[11],0.247
same,glycan array binding signal (z-score),[12],-0.915
same,glycan array binding signal (z-score),[13],3.28
same,glycan array binding signal (z-score),[14],-0.668
same,glycan array binding signal (z-score),[15],0.361
same,glycan array binding signal (z-score),[16],-0.107
same,glycan array binding signal (z-score),[17],0.379
same,glycan array binding signal (z-score),[18],1.19
same,glycan array binding signal (z-score),[19],0.758
same,glycan array binding signal (z-score),[20],1.57
same,glycan array binding signal (z-score),[21],0.256
same,glycan array binding signal (z-score),[22],0.511
same,glycan array binding signal (z-score),[23],1.01
same,glycan array binding signal (z-score),[24],-0.013
same,glycan array binding signal (z-score),[25],0.502
same,glycan array binding signal (z-score),[26],0.042
same,glycan array binding signal (z-score),[27],1.2
same,glycan array binding signal (z-score),[28],1.27
same,glycan array binding signal (z-score),[29],1.16
